# Results as given in PubChem BioAssay (NCATS).
# The shares of active, inactive and inconclusive entries below differ from those in the screen. For some of these results: Potencies beside an inconclusive call are fits to weak or partial responses and may not hold up. Active and inactive are the calls of the source. Unless noted, calls follow the shape of the dose curve; as a rule, active = well fitted curve in the direction sought with a large enough effect; inconclusive = small, poorly fitted or top-dose-only effect, or another doubt; inactive = no such curve, though single readings can be large; an effect the other way counts as inactive or inconclusive.
# Columns and labels:
# [1] = P-glycoprotein substrates identified in KB-8-5-11 adenocarcinoma cell line, qHTS therapeutic library screen (AID 1346987); settings: activity change, negative = cytotoxicity: at 44.5 µM (top of the series); also: % is scaled to controls: 0 for no effect and ±100 for the full control effect; nearly all actives have a fitted effect of over 65% in size
# Procedure, shortened: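 P-gp-mediated resistance screen: KB-8-5-11 cells treated 72 h with compounds in dose-response. CellTiter-Glo viability.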
# [2] = Primary fluorescence-based thiol-reactive (MSTI) qHTS assay for identification of artifact compounds. (AID 1845221);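 also: potency is read from the fitted curve at half-maximal effect; thiol-reactive compounds lower the probe fluorescence signal; nearly all actives have a fitted effect of over 65% in size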
# Procedure, shortened: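 Compounds were incubated 1 h at room temperature in the dark with the MSTI probe (4 uM) in PBS pH 7.4, 2% DMSO. Signals were normalized between Acetyl-MSTI and MSTI.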
# HeLa = assay: Primary qHTS to identify gynecologic anti-cancer compounds using libraries of approved drugs and bioactive compounds (AID 1345084); settings: Gynecologic cancer cell panel viability, ATPlite luminescence, 48 h; series mostly up to 57.5 µM; also: nearly all actives have a fitted effect of over 55% in size; also: potency is read from the fitted curve at half-maximal effect; as to activity change, negative = cytotoxicity: % is scaled to controls: 0 for no effect and ±100 for the full control effect
# Procedure, shortened: (§1)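 Luminescence from the ATPlite ATP-monitoring reagent indicates viable cell number; lower signal means cytotoxicity. Cells received compound 16 h after seeding and were exposed for 48 h across five concentrations.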
# SKOV3 = assay: as above; settings: Gynecologic cancer cell panel viability, ATPlite luminescence, 48 h; series mostly up to 57.5 µM
# Procedure, shortened: as §1
# [3] = molecular target: N-terminal Xaa-Pro-Lys N-methyltransferase 1 (Homo sapiens) (UniProt Q9BV86); assay: qHTS Assay for Inhibitors of N-terminal methyltransferase 1 (NTMT1): LOPAC validation of the NTMT1 SAHH-coupled ThioGlo3 Assay (AID 1347143);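 also: SAH from peptide methylation measured as thiol fluorescence via SAHH coupling and ThioGlo3; potency is read from the fitted curve at half-maximal effect; nearly all actives have a fitted effect of over 70% in size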
# Procedure, shortened: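 Inhibition of NTMT1 methylation of peptide SPKRIA is followed by converting SAH with SAHH and labelling the released thiol with ThioGlo3. Plates are read at 340/450nm before and 30 min after reagent addition, both at room temperature.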
# [4] = molecular target: Cytochrome P450 2D6 (Homo sapiens) (UniProt P10635); assay: Cytochrome P450 family 2 subfamily D member 6 (CYP2D6) small molecule antagonists: luciferase biochemical (cell-free) qHTS assay (AID 1645840; active = well fitted curve in the direction sought with a large enough effect in the repeat runs; inconclusive = weak or mixed curves; inactive = no such curve, though single readings can be large; an effect the other way counts as inactive or inconclusive)
# Procedure, shortened: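 P450-Glo luminescent screen: recombinant CYP2D6 enzyme–proluciferin substrate mix preincubated with compound 10 min at room temperature, then NADPH regeneration added for 1 h at room temperature. Detection reagent added for 20 min; luciferin light read as relative luminescence units.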
# [5] = molecular target: Cytochrome P450 2C9 (Homo sapiens) (UniProt P11712); assay: Cytochrome P450 family 2 subfamily C member 9 (CYP2C9) small molecule antagonists: luciferase biochemical (cell-free) qHTS assay (AID 1645842; active = well fitted curve in the direction sought with a large enough effect in the repeat runs; inconclusive = weak or mixed curves; inactive = no such curve, though single readings can be large; an effect the other way counts as inactive or inconclusive)
# Procedure, shortened: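 Luminescence, after 20 min with luciferin detection reagent, reflected CYP2C9 turnover during a 1 h NADPH-driven reaction at 37C. Enzyme-substrate mix contained 0.4% bovine serum albumin and was preincubated with compound 10 min at room temperature.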
# [6] = Primary qHTS for inhibitors of nuclear receptor binding SET domain protein 2 (NSD2) in an isogenic RCH-ACV NSD2 p.E1099K mutant (9B) (AID 1645876); settings: activity change, negative = viability loss: at 44.9 µM (top of the series) unless noted; also: nearly all actives have a fitted effect of over 70% in size; also: potency is read from the fitted curve at half-maximal effect
# [7] = Primary qHTS for inhibitors of nuclear receptor binding SET domain protein 2 (NSD2) in an RCH-ACV wild type WT cells (2C) (AID 1645877); settings: activity change, negative = cell killing: at 44.9 µM (top of the series) unless noted; also: potency is read from the fitted curve at half-maximal effect; nearly all actives have a fitted effect of over 70% in size
# JEG-3 = assay: Primary qHTS to identify gynecologic anti-cancer compounds using libraries of approved drugs and bioactive compounds (AID 1345084); settings: Gynecologic cancer cell panel viability, ATPlite luminescence, 48 h; series mostly up to 57.5 µM; also: nearly all actives have a fitted effect of over 55% in size; also: potency is read from the fitted curve at half-maximal effect; as to activity change, negative = cytotoxicity: % is scaled to controls: 0 for no effect and ±100 for the full control effect
# Procedure, shortened: as §1
# OV90 = assay: as above; settings: Gynecologic cancer cell panel viability, ATPlite luminescence, 48 h; series mostly up to 57.5 µM
# Procedure, shortened: as §1
# [8] = Primary redox qHTS assay for identification of artifact compounds. (AID 1845223); also: potency is read from the fitted curve at half-maximal effect
# Procedure, shortened: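 Amplex Red (25 uM) and HRP (250 mU/mL) in HBSS, with compounds for 15 min, then 250 uM DTT for 30 min, room temperature, dark. Fluorescence 525/598 nm read; normalized to DMSO and 10 uM DA3003; Hill fit.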
# [9] = P-glycoprotein substrates identified in KB-3-1 adenocarcinoma cell line, qHTS therapeutic library screen (AID 1346986); also: nearly all actives have a fitted effect of over 60% in size
# Procedure, shortened: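 Counter-screen: cherry-picked hits retested in the KB pair and in HEK-293 pcDNA/MDR-19 cells ± tariquidar. Primary screen used 72 h CellTiter-Glo viability in KB-3-1 and KB-8-5-11.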
# [10] = system: Zika virus NS2B-NS3 protease (linked construct); assay: Primary screen NINDS Rhodamine qHTS for Zika virus inhibitors (AID 1347160); also: nearly all actives have a fitted effect of over 55% in size; also: potency is read from the fitted curve at half-maximal effect
# Procedure, shortened: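 Kinetic fluorescence (Ex 480 nm, Em 540 nm) over 15 min with 1.5 microM Rhodamine110 peptide and 25 nM linked protease.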
# [11] = molecular target: Phospholipid hydroperoxide glutathione peroxidase GPX4 (Homo sapiens) (UniProt P36969); assay: Primary qHTS Assay for Inhibitors of Recombinant Selenoprotein Glutathione Peroxidase 4 (GPX4) (AID 1845192); settings: activity change, negative = inhibition: at 50 µM (top of the series) unless noted; also: potency is read from the fitted curve at half-maximal effect; nearly all actives have a fitted effect of over 65% in size
# Procedure, shortened: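 NADPH consumption, followed by fluorescence at 340/450 nm between 0 and 15 min, reports GPX4 activity via coupled glutathione reductase (100 nM). Enzyme 200 nM was pre-exposed to compound 30 min; 0.5 mM cumene hydroperoxide and 1 mM GSH served as substrates.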
# PA-1 = assay: Primary qHTS to identify gynecologic anti-cancer compounds using libraries of approved drugs and bioactive compounds (AID 1345084); settings: Gynecologic cancer cell panel viability, ATPlite luminescence, 48 h; series mostly up to 57.5 µM; also: nearly all actives have a fitted effect of over 55% in size; also: potency is read from the fitted curve at half-maximal effect; as to activity change, negative = cytotoxicity: % is scaled to controls: 0 for no effect and ±100 for the full control effect
# Procedure, shortened: as §1
# [12] = system: Zika virus NS2B-NS3 protease (unlinked complex); assay: Primary screen GU Rhodamine qHTS for Zika virus inhibitors: Unlinked NS2B-NS3 protease assay (AID 1347159); settings: Recombinant ZIKV NS2B-NS3 protease, Rhodamine110 substrate fluorescence; activity change, negative = inhibition: at 107 µM (top of the series); also: nearly all actives have a fitted effect of over 60% in size; also: potency is read from the fitted curve at half-maximal effect
# Procedure, shortened: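 A qHTS format was used, with compound concentrations ranging up to 114 microM. Each compound was preincubated with 25 nM NS2B-NS3 protease, and the substrate was then added at 1.5 microM. Curves were fitted with a 4-parameter Hill model.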
# [13] = molecular target: Beta-2 adrenergic receptor (Homo sapiens) (UniProt P07550); assay: qHTS validation assay of beta-arrestin-biased ligands of beta2-adrenergic receptor (AID 485366); also: 0% is about no effect
# Procedure, shortened: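 Values derive from curve-fitted %Activity of a luminescent beta-arrestin recruitment reporter; compounds tested up to 46 microM on Tango cells for 18 hr at 37 degrees C, 5% CO2.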
# [14] = molecular target: Thioredoxin reductase 1, cytoplasmic (Rattus norvegicus) (UniProt O89049); assay: qHTS Assay for Substrates of Mammalian Selenoprotein Thioredoxin Reductase 1 (TrxR1) (AID 488772);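 also: NADPH fluorescence in the first read after selenite addition and not the 8 min delta; 0% is about no effect; a drop in NADPH fluorescence below the no-compound background marks a TrxR1 substrate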
# Procedure, shortened: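 Quantitative HTS in Tris-HCl buffer at pH 7.5 with EDTA and Tween-20, using rat TrxR1, 400 uM NADPH and 400 uM selenite (final). A fall in initial NADPH fluorescence relative to background marked substrate behaviour.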
# [15] = molecular target: Chromobox protein homolog 1 (Homo sapiens) (UniProt P83916); assay: qHTS Validation Assay for Inhibitors of HP1-beta Chromodomain Interactions with Methylated Histone Tails (AID 488953);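 also: loss of AlphaScreen luminescence from HP1-beta binding biotinylated H3K9me3 peptide; % is scaled to controls: 0 for no effect and ±100 for the full control effect; nearly all actives have a fitted effect of over 50% in size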
# Procedure, shortened: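 Measured as loss of AlphaScreen luminescence from streptavidin donor and nickel acceptor beads (10 ug/mL final) bridging HP1-beta and biotin-H3(1-18)K9me3, each 50 nM. Compounds met the preassembled complex for 30 min at RT.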
# [16] = molecular target: Atrial natriuretic peptide receptor 1 (Homo sapiens) (UniProt P16066); assay: Natriuretic polypeptide receptor (hNpr1) antagonism - Pilot screen (AID 1347049; calls by dose curve;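 also: agonist-evoked cGMP luminescence read 20 min after hNppA addition; potency is read from the fitted curve at half-maximal effect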)
# Procedure, shortened: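 Readout is cGMP-driven firefly luciferase luminescence in HEK293 cells carrying hNpr1 and a PDE5-domain GloSensor, read before and 20 min after 0.1 nM hNppA stimulation. Cells had 2% substrate reagent for 2 h and test compound for 30 min.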
# [17] = molecular target: Parathyroid hormone/parathyroid hormone-related peptide receptor (Homo sapiens) (UniProt Q03431); assay: qHTS for PTHR1 Agonists: Optimization Screen against the NCGC LOPAC library (AID 1347079);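 also: GloSensor cAMP luminescence in HEK-293 GP2 cells expressing human PTHR1 with IBMX; potency is read from the fitted curve at half-maximal effect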
# Procedure, shortened: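 Compounds were tested across a qHTS titration. PTHR1-expressing GP2 cells report cAMP rises via GloSensor luminescence after 1 hr compound exposure at 37C with IBMX present.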
# [18] = Primary qHTS for small molecule stabilizers of the endoplasmic reticulum resident proteome: Secreted ER Calcium Modulated Protein (SERCaMP) assay (AID 1508630); settings: SH-SY5Y GLuc-SERCaMP (Gaussia luciferase released on ER calcium loss) secretion, thapsigargin, luminescence; activity change, negative = inhibition: at 38.4 µM (top of the series) unless noted; also: % is scaled to controls: 0 for no effect and ±100 for the full control effect
# Procedure, shortened: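 GLuc-SERCaMP-expressing SH-SY5Y cells, pretreated 16 h with compound, are challenged with thapsigargin to empty ER calcium stores; after 4 h, coelenterazine is added directly to the medium and luminescence is imaged.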
# Hek293T = assay: Primary qHTS to identify gynecologic anti-cancer compounds using libraries of approved drugs and bioactive compounds (AID 1345084); settings: Gynecologic cancer cell panel viability, ATPlite luminescence, 48 h, control line for the selectivity index; series mostly up to 57.5 µM; also: nearly all actives have a fitted effect of over 55% in size; also: potency is read from the fitted curve at half-maximal effect
# Procedure, shortened: as §1
# Tags tell the direction and shape of the fitted curve.
# Chain of UniProt P10635 (P10635 whole entry, looked up): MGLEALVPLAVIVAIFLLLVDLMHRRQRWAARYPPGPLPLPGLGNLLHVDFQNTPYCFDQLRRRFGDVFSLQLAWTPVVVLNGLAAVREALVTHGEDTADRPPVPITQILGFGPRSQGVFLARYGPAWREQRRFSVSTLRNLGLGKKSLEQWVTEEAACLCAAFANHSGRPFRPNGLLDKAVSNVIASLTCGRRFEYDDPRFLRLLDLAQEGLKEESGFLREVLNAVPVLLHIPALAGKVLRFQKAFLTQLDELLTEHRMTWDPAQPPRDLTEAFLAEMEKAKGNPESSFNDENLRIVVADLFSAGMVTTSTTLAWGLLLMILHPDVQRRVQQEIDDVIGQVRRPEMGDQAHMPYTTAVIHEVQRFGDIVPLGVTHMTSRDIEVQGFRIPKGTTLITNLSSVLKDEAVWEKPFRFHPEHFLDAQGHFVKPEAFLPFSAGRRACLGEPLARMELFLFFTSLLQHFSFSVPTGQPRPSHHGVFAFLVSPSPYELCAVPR
# Chain of UniProt P11712 (P11712 whole entry, looked up): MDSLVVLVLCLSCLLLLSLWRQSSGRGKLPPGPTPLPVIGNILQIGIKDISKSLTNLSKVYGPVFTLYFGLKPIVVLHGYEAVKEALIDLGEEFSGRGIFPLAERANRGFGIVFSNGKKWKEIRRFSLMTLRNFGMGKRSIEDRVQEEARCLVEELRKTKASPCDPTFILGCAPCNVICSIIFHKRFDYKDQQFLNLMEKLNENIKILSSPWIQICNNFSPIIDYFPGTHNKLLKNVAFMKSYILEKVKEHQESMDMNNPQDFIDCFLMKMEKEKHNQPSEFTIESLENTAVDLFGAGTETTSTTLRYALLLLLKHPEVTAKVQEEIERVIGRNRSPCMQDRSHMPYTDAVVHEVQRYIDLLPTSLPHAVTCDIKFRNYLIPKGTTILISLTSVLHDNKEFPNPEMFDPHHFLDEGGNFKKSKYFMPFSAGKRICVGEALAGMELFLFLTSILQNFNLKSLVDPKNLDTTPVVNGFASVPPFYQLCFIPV
# Chain of UniProt O89049 (O89049 whole entry, looked up): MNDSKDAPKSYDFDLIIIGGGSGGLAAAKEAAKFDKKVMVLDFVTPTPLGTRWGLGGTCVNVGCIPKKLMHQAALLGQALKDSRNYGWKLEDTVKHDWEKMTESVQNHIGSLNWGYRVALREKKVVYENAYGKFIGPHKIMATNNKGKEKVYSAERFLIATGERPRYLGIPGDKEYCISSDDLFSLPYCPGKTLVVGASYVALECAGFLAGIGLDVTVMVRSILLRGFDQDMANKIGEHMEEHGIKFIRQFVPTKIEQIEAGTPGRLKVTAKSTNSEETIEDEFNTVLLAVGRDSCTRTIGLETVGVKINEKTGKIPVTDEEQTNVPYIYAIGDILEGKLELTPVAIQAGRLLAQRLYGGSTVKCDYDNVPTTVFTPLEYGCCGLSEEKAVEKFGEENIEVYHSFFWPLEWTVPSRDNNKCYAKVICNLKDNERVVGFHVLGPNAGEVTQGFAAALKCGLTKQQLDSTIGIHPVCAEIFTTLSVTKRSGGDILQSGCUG
# Chain of UniProt Q9BV86 (Q9BV86 whole entry, looked up): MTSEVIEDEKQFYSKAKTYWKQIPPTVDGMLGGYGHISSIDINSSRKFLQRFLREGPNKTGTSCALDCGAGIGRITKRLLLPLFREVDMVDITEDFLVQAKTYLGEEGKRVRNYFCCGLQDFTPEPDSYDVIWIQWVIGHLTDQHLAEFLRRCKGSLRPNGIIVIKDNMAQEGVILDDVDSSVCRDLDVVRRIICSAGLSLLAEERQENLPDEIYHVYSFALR
# Chain of UniProt P36969 (P36969 whole entry, looked up): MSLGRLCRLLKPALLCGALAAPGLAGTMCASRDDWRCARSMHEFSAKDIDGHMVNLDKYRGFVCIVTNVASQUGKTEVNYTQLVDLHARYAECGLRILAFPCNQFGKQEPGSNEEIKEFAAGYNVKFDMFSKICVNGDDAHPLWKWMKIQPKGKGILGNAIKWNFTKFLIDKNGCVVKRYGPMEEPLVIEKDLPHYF
# Chain of UniProt Q03431 (Q03431 whole entry, looked up): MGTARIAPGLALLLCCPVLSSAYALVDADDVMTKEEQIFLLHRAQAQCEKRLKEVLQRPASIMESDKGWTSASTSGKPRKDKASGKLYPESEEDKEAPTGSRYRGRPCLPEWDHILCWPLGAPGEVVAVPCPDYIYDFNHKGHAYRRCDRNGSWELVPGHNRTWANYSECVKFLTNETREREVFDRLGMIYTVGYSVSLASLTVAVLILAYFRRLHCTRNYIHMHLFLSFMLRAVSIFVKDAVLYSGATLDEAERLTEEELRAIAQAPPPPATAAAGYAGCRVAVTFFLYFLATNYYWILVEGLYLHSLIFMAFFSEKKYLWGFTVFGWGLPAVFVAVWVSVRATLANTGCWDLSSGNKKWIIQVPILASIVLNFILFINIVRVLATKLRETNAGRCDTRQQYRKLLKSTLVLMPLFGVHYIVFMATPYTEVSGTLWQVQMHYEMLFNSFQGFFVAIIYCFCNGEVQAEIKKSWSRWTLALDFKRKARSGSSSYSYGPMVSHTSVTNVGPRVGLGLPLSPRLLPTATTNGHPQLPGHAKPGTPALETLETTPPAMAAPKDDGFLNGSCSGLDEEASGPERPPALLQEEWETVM
# Chain of UniProt P16066 (P16066 whole entry, looked up): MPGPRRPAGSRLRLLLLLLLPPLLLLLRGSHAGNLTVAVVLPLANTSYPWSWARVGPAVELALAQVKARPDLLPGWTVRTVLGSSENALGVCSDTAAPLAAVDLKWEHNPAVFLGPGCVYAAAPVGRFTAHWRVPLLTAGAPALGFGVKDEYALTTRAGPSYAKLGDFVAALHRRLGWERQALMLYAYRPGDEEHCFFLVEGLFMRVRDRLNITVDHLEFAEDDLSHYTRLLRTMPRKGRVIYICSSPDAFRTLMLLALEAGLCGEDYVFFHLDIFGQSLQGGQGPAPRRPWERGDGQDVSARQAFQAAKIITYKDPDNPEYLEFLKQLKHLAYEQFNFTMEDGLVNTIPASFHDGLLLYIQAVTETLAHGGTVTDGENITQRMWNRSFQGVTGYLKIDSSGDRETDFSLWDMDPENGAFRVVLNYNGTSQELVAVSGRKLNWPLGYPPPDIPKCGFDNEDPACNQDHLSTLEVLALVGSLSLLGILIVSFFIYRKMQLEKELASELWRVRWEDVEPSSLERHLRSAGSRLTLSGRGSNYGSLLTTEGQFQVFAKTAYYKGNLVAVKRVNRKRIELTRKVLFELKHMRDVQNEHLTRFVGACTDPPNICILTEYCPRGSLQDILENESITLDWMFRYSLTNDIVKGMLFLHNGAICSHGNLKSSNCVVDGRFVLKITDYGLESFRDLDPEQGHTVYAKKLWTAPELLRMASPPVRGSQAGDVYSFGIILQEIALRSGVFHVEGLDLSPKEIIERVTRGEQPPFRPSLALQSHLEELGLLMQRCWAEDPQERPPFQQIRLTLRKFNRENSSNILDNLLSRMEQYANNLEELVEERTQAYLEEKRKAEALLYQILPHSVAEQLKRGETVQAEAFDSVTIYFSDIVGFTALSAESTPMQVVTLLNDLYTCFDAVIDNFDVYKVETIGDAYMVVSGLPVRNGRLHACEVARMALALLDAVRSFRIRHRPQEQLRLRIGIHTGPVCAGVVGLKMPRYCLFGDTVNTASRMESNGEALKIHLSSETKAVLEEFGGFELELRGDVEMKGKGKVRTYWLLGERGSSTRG
# Chain of UniProt P07550 (P07550 whole entry, looked up): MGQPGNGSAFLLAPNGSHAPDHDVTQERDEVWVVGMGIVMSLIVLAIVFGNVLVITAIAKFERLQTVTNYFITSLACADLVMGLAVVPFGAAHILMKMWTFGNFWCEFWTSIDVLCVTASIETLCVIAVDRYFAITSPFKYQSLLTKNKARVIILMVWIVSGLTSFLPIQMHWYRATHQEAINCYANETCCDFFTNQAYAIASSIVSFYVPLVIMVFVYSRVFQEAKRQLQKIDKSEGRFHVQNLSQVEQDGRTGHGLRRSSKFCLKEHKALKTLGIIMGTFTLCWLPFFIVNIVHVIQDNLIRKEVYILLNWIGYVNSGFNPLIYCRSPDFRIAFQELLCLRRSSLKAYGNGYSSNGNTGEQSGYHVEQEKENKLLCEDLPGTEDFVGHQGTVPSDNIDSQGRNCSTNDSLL
# Chain of UniProt P83916 (P83916 whole entry, looked up): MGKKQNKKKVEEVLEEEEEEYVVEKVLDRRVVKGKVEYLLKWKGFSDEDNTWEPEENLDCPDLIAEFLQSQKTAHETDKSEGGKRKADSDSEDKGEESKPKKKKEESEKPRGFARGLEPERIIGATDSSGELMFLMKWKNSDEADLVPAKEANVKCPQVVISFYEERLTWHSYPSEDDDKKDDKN
smiles,measurement,setting,value
CCC(C)C(=O)O[C@@H]1[C@@H](O)[C@@H](O[C@H]2O[C@H](CO)[C@@H](O)[C@H](O)[C@H]2O)O[C@H](CO)[C@H]1O (stereo not given in full),Potency,[1],inactive
same,Potency,[2],"inconclusive: 13 µM [inhibitor, partial curve]"
same,Potency,HeLa,inactive
same,Potency,SKOV3,"inconclusive: 2.24 µM [cytotoxic, partial curve, poor fit]"
O=[N+]([O-])c1ccc(CNc2nc(NCc3cccc(C(F)(F)F)c3)nc3nc[nH]c23)cc1,Potency,[3],"inconclusive: 50.1 µM [inhibitor, partial curve]"
same,Potency,[4],"inconclusive: 21.3 µM [inhibitor, partial curve, poor fit]"
same,Potency,[5],active: 1.07 µM
same,Potency,[6],"inconclusive: 18.3 µM [inhibitor, single point]"
same,Potency,[7],"inconclusive: 20.5 µM [inhibitor, single point]"
same,Potency,HeLa,inactive
same,Potency,JEG-3,inactive
same,Potency,OV90,"inconclusive: 20 µM [cytotoxic, single point]"
C/C=C(\C)C(=O)OC[C@H]1O[C@@H](O[C@H]2[C@@H](O[C@H]3O[C@H](COC(=O)/C(C)=C/C)[C@@H](O)[C@H](O)[C@H]3O[C@@H]3O[C@H](CO)[C@@H](O)[C@H](OC(=O)/C(C)=C/C)[C@H]3O)O[C@H](COC(=O)/C(C)=C/C)[C@@H](O)[C@@H]2O)[C@H](O)[C@@H](O)[C@@H]1O,Potency,[2],"inconclusive: 2.01 µM [inhibitor, partial curve]"
same,Potency,[8],"inconclusive: 6.36 µM [activator, single point]"
same,"activity change, negative = cytotoxicity",HeLa,inactive: -5.55% [at 11.6 µM]
same,"activity change, negative = cytotoxicity",OV90,inactive: -2.51% [at 11.6 µM]
CCOC(=O)CSc1nc2c(sc3ccccc32)c(=O)n1CCCN1CCCC1,Potency,[9],inactive
same,Potency,[1],inactive
same,Potency,[10],inactive
same,Potency,[4],active: 0.849 µM
same,Potency,[11],"inconclusive: 14.3 µM [inhibitor, partial curve]"
same,Potency,HeLa,"inconclusive: 25.1 µM [rising, partial curve, poor fit]"
same,Potency,PA-1,inactive
same,Potency,SKOV3,"inconclusive: 20 µM [rising, single point]"
C=C1CCC2C(C)(C)CCC[C@]2(C)[C@H]1C/C=C(\CO)C(=O)C(=O)O (stereo not given in full),Potency,[12],"inconclusive: 22.4 µM [inhibitor, full curve]"
same,Potency,[6],"inconclusive: 28.4 µM [inhibitor, partial curve, poor fit]"
same,Potency,[7],"inconclusive: 8.98 µM [inhibitor, partial curve, poor fit]"
same,Potency,HeLa,inactive
same,Potency,PA-1,"inconclusive: 5.62 µM [cytotoxic, single point]"
O=C(O)CC1CC(c2ccccc2)=NO1 (stereo not given),Potency,[13],inactive
same,Potency,[14],inactive
same,Potency,[15],inactive
same,Potency,[16],"inconclusive: 0.0338 µM [inhibitor, full curve, poor fit]"
same,Potency,[17],active: 10.6 µM
same,Potency,[12],inactive
same,Potency,[10],"inconclusive: 2.82 µM [inhibitor, partial curve, poor fit]"
same,Potency,[18],inactive
same,Potency,[6],inactive
same,Potency,HeLa,inactive
same,Potency,Hek293T,inactive
